Measurements published in a collection of fitness landscapes (doi:10.1016/j.celrep.2020.107928).
The full ranking holds about 81,000 sequences; the median of “one-hybrid fitness for binding parS DNA” is about -0.17, and the highest 2% start at about 0.51. This is one part of the list.

B1: Caulobacter ParB omega fusion; a variant is named by its letters at X, in order, B8GW30 (parent)
chain: MESVVVGEPGMSEGRRGLGRGLSALLGEVDAAPAQAPGEQLGGSREAPIEILQRNPDQPRRTFREEDLEDLSNSIREKGVLQPILVRPSPDTAGEYQIVAGERAWRAAQRAGLKTVPIMVRELDDLAVLEIGIIENVQRADLNVLEEALSYKVLMEKFERTQENIAQTIGKSXSHVANXMRLLXLPDEVQSYLVSGELTAXHARAIAAAADPVALAKQIIEGGLSVRETEALARKAPNLSAGKSKGGRPPRVKDTDTQALESDLSSVLGLDVSIDHRGSTGTLTITYATLEQLDDLCNRLTRGI

Variants of: B1
Assay: one-hybrid fitness for binding parS DNA (scaled: cognate 1, non-cognate 0); higher = stronger binding
Settings: with parS DNA site
Summary of the method: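 Fitness here means the log change in variant-to-wild-type read ratio between plasmids sequenced before and after selection. That scale was set so cognate equals 1 and non-cognate equals 0. The selection was a bacterial one-hybrid screen of Caulobacter ParB libraries, four specificity codons randomised, in E. coli USO carrying a HIS3 reporter with the site 19 bp from the promoter, grown 48 hours at 37°C on M9-minus-histidine with 0.1 mM IPTG and 5 mM 3-AT.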

one-hybrid fitness for binding parS DNA, 0.26:
RWAN

one-hybrid fitness for binding parS DNA, 0.931:
RITT

one-hybrid fitness for binding parS DNA, 0.637:
RHVT

one-hybrid fitness for binding parS DNA, 0.207:
RSLH

one-hybrid fitness for binding parS DNA, 0.956:
RLTT

one-hybrid fitness for binding parS DNA, 0.913:
RSRS

one-hybrid fitness for binding parS DNA, 0.545:
RVMA

one-hybrid fitness for binding parS DNA, 0.202:
QNHI

one-hybrid fitness for binding parS DNA, ≤ 0.2:
VKSA
YNDR
IFHG
TAGQ
RPWR
WATS
ACTC
TLFC
EELK
CSPN
WAVM
EWRC
SDTL
CVQR
IFYT
WTTQ
FPRF
MSIF
WKNN
RDRP
IMSR
EDYP
ACLF
HLRR
ISIF
LILE
DVTW
VGES
RWCR
NIMD
ASLS
IAHC
AMKC
DPLN
ITWR
MTNP
SAHI
SFPY
ATLY
QTRV
RMPK
IMSF
WFNR
VICL
FKQG
LYKM
MSCN
TVAW
AKNF
PNQN
PKER
RCNK
AACA
LCCC
GSFG
SPSM
KTLS
DRYY
NEVN
DPHT
QLIT
LVFG
VTLT
SYKP
LNKA
MDLY
WNTR
WHLL
WTTK
TYVS
SAEV
HSMG
QCKG
NYSR
AGLV
QAYI
NGHL
TAIN
LPAY
QINM
RLPQ
YVDY
MCKT
EVMT
VCQM
SKGT
PTLP
NYYL
ACPS
FNPD
QHQK
AMRS
WEWS
CMQI
MAGS
NSAT
GASW
DAAT
VKNL
CSPL
CIWG
FQST
DWRS
NSSP
QCAC
YRHL
STTI
ACGN
WRHA
AYTM
HPDY
VISD
IGNS
HLNF
ASDG
GQPP
FWRC
VEVN
HAEC
SDKC
YVTF
WYGT
LSYE
YDES
RDEF
HTSI
WLGS
FYPY
WTAT
CMLS
TPDA
GCRR
FTWS
TCQC
NNLL
DLCA
HDML
GFGR
KYDC
SAVT
VMMF
WWSA
PKHQ
CPSI
VRVN
ANIR
LAFR
KERG
QAIR
IKHR
KTGL
RDLM
WDAC
SDAE
STLR
MTEW
LPLD
PEIR
VMVS
NQPI
ELSS
SKIS
PWQL
SLQL
IYRH
SCAK
YYES
IAPW
HNSV
SMEW
ELVM
FSAT
ANDR
IRDT
KESS
VPNA
EEVT
IDSG
KPGG
IRCY
READ
RVAQ
VTKY
EPMC
EFGL
ASGS
VAET
TPPP
RSMR
NVQG
MITG
KAMF
LIAV
LYMY
LNLH
RGQH
SVWG
AFVD
VWST
THKQ
PWPI
PQMT
EEHL
HAFE
SGLI
QHDD
SLIF
SFCC
HNIT
WKRK
GAFC
GQGC
IKNY
PKPL
RAHR
RQGP
SPQL
FKND
PMPT
QTGA
HYVM
THWY
QGGV
RLED
DTHR
NSKC
GFIG
ENIC
RNRL
HCTC
SVPQ
VSGC
PWED
VVRC
RDWC
NLLR
QMAY
DNER
AYSL
GGNQ
VAAA
PMYY
GQHS
LLNR
PDSC
ASRS
ENHE
YTTA
SKDR
IAMA
CDSG
GCEG
VCNT
FSLL
DDQG
PQHI
SMDE
YKNG
ANYV
TANS
MVAN
LIVR
ANTI
QGTW
QHCE
SHQF
NGQY
PTIN
LMLE
DCGC
TCFT
CHLV
GGRE
DHYY
PVNY
SDHV
WVFT
GVWG
SFKT
FTQR
YTNM
WCAK
TDPS
QSWW
QYCC
YKTN
RSWF
RHDQ
RIHR
CMNY
GGES
YMQK
KHNC
YMPC
DIVR
TKCR

one-hybrid fitness for binding parS DNA, 0.451:
RKIA

one-hybrid fitness for binding parS DNA, 0.613:
RLMA
